Source: PubChem BioAssay AID1030 (National Center for Advancing Translational Sciences (NCATS), 2008)
Out of some 220,000 compounds screened, about 16,000 (7.3%) were called active. The inconclusive results got no clear call from the source; some entries with a clear call stand among them for comparison. The call rests on the fitted dose curve; in most records, active means well fitted inhibition curve with a large enough effect (not every such curve was filed as active); inconclusive means small, poorly fitted or top-dose-only effect, or another doubt; inactive means no such curve, though single readings can be large or run the other way. A potency beside an inconclusive call is a rough fit, not a confirmed value.

Biological target: Aldehyde dehydrogenase 1A1 (Homo sapiens) (UniProt P00352)
Chain of UniProt P00352 (P00352 whole entry, looked up): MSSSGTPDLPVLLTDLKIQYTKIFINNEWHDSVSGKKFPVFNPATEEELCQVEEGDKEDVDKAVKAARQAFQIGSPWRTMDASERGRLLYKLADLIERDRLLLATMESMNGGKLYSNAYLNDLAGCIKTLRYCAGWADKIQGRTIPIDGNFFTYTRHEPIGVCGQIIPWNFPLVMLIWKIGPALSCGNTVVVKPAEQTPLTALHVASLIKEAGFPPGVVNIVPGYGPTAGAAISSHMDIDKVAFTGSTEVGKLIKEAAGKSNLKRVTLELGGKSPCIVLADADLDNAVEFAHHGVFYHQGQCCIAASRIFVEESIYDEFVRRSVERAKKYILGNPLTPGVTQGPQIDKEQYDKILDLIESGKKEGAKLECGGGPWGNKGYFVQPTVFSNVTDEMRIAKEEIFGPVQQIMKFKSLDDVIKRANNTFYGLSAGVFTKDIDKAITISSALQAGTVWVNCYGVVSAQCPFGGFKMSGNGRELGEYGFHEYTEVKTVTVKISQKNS
Test: qHTS Assay for Inhibitors of Aldehyde Dehydrogenase 1 (ALDH1A1);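 on activity, negative = inhibition: plate controls were no enzyme wells and a reference inhibitor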
Details: Purified ALDH1A1, NADH fluorescence, propionaldehyde substrate; series mostly up to 75.3 µM
Potency means the concentration at half of the fitted maximal effect; tags describe the fitted curve by direction and shape.

Potency, inconclusive:
COc1cccc(/C=N/Nc2nn3cnnc3c3ccccc23)c1 35.5 µM [inhibitor, single point], COc1ccc(CCN(Cc2cc3cc4c(cc3[nH]c2=O)OCO4)C(C)=O)cc1OC 25.1 µM [inhibitor, single point], COc1ccc2c(c1)c(=O)oc1cc(OCC(=O)NC3CCCCC3)ccc12 11.2 µM [inhibitor, partial curve], CCCCNC(=O)[C@H](CSCc1ccccc1)N1Cc2ccccc2C1=O 39.8 µM [inhibitor, single point], CCCOc1c(Cl)cc(/C=N/O)cc1OCC 35.5 µM [inhibitor, single point], COc1ccc(C(=O)N2CC3(C)CC2CC(C)(C)C3)cc1 (stereo not drawn) 44.7 µM [inhibitor, single point], Cc1nc2cc3ccccc3cc2c(=O)[nH]1 28.2 µM [inhibitor, partial curve], O=C(COc1cccc2cccnc12)NNC(=S)Nc1ccccc1 39.8 µM [inhibitor, single point], CNc1nnc(-c2ccc(C)cc2)c2ccccc12 39.8 µM [inhibitor, single point], Cc1cc(-n2c(C)cc(C(=O)CN3C(=O)NC4(CCCCC4C)C3=O)c2C)no1 (stereo not drawn) 44.7 µM [inhibitor, single point], CC(C)(C)OC(=O)NCCCCc1cn(CC(=O)N2CCN(C(=O)OC(C)(C)C)CC2)nn1 39.8 µM [inhibitor, single point], CC(C)c1ccc(NC(=O)CSc2nnc(-c3ccccn3)n2C)cc1 22.4 µM [inhibitor, single point], CCCc1nc(N2CCN(C)CC2)c2sc(=S)n(-c3ccccc3)c2n1 22.4 µM [inhibitor, single point], CCN(CC)c1ccc(/C=N/N2CCN(Cc3cccc4ccccc34)CC2)c(O)c1 39.8 µM [inhibitor, single point], CCOCCn1c(SCCc2ccccc2)nc2c1c(=O)[nH]c(=O)n2C 39.8 µM [inhibitor, single point], Cc1ccc2cc(CN(CC3CCCO3)S(=O)(=O)c3cccc4nsnc34)c(=O)[nH]c2c1 (stereo not drawn) 25.1 µM [inhibitor, single point], O=S(=O)(Nc1ccccn1)c1cccc(S(=O)(=O)c2ccc(Br)cc2)c1 39.8 µM [inhibitor, single point], Cn1c(=O)c2c(nc(N3CCc4ccccc4C3)n2Cc2ccccc2F)n(C)c1=O 39.8 µM [inhibitor, single point], COc1ccc(CCNC(=O)C2CCN(S(=O)(=O)N3CCC4(CC3)OCCO4)CC2)cc1OC 31.6 µM [inhibitor, single point], O=C(CN1CCN(c2ccccn2)CC1)N1CCc2ccccc21 39.8 µM [inhibitor, single point], COc1ccc(-c2cc3ccc(OCc4nn[nH]n4)cc3oc2=O)cc1OC 31.6 µM [inhibitor, single point], CC(C)OC(=O)CC(=O)CSc1nc2c(cc1C#N)CCCCCC2 35.5 µM [inhibitor, single point], COc1ccc(S(=O)(=O)N2CCN(CCC(=O)Nc3ccc(F)cc3)CC2)cc1 39.8 µM [inhibitor, single point], COc1ncc2nc(-c3cccs3)c(=O)n(C)c2n1 25.1 µM [inhibitor, partial curve], Cc1ccc(CNC(=O)C2CCCN(c3nn4c(=O)cc(C)nc4s3)C2)cc1 (stereo not drawn) 39.8 µM [inhibitor, single point], O=C(Cn1c(=O)n(Cc2ccco2)c(=O)c2ccccc21)NCC1CCCO1 (stereo not drawn) 20 µM [inhibitor, single point], CCc1nnc(NS(=O)(=O)c2ccc(N=CC3=C(O)CC(C)(C)CC3=O)cc2)s1 44.7 µM [inhibitor, single point], O=C(CCCN1C(=O)/C(=C\c2ccco2)SC1=S)Nc1ccc2ccccc2c1 37.7 µM [inhibitor, single point], COc1ccc(-n2nnnc2SCC(=O)c2ccc(OC)c(OC)c2)cc1 39.8 µM [inhibitor, single point], Cc1ccc(N/C=C(/C#N)c2ccsc2)cc1 39.8 µM [inhibitor, single point], CSc1nsc(SC)c1NC(=O)OCc1ccccc1 39.8 µM [inhibitor, single point], COc1ccc2c(c1)[nH]c1c(=O)n(Cc3ccccn3)cnc12 14.1 µM [inhibitor, partial curve], COC(=O)c1scc2c(Oc3ccccc3)cc(C(F)(F)F)nc12 25.1 µM [inhibitor, partial curve], Cc1nnc2ccc(-c3ccc(NC(=O)c4ccco4)cc3)nn12 35.5 µM [inhibitor, single point], CCc1ccc2oc(C(=O)NCc3ccncc3)c(C)c2c1 39.8 µM [inhibitor, single point], COC(=O)c1[nH]c2cccc(OC)c2c1NC(=O)CCN1CCC(C)CC1 39.8 µM [inhibitor, single point], COc1ccc(CN(Cc2ccccn2)S(=O)(=O)c2ccc(-n3cnnn3)c(OC)c2)cc1 15.8 µM [inhibitor, partial curve], Cc1ccc(-c2nc(Cl)nc3ccccc23)cc1 39.8 µM [inhibitor, single point], Cc1ccc(-c2cc(C(=O)N3N=C(C(F)F)CC3(O)C(F)F)c3ccccc3n2)cc1C (stereo not drawn) 39.8 µM [inhibitor, single point], S=C(N/N=C/c1ccccc1)N1CCOCC1 39.8 µM [inhibitor, single point], CCOC(=O)c1c(-c2ccc(F)cc2)cn2ccccc12 15.8 µM [inhibitor, partial curve], CCCC1(C(=O)OC)C=C2C(=C(C)C(=O)C2C)CN1 (stereo not drawn) 15.8 µM [inhibitor, partial curve], COc1ccccc1CNC(=O)COC(=O)c1cc(-c2ccco2)nc2ccccc12 11.2 µM [inhibitor, partial curve]

Potency, inactive:
C=C(C)COc1ccc(-c2[nH]ncc2-c2ccc(OC)c(OC)c2)c(O)c1, Cc1cc2ccccc2n1CCNC(=O)c1cccs1, O=C(/C=C/c1ccco1)Nc1ccccn1, CC(C)NC(=O)N1CC2(CCN(C(=O)c3cc(C(F)(F)F)cc(C(F)(F)F)c3)CC2)C1, CCCn1c(SCC(=O)NCc2ccccc2)n[nH]c1=O, CCCCSc1nc(C(=O)O)cc(=O)[nH]1, CCN1CCN(C(=O)CN(C)S(=O)(=O)c2ccc(OC)c(C)c2)CC1, O=C(Nc1ccc(N2CCN(C(=O)c3ccc(Cl)cc3)CC2)cc1)c1ccc([N+](=O)[O-])o1, COc1cccc2c3c(c(=O)[nH]c12)CCC(C)(C)O3, CCc1nnc(NC(=O)CSc2nnc(-c3ccccc3O)n2CC)s1, CCCn1cnc2c1c(=O)n(CCCCC(C)=O)c(=O)n2C, CCN(CC(=O)Nc1ccc(N2CCOCC2)cc1)C(=O)c1ccc(C#N)cc1, CC(C)NC(=O)NC(=O)COc1ncnc2sccc12, COc1cccc(CNC(=O)CN(c2cc(C)cc(C)c2)S(=O)(=O)c2c(C)noc2C)c1, O=[N+]([O-])c1cccc(C(=S)N2CCCC2)c1, O=C(O)CSc1nnc2c(n1)[nH]c1ccccc12, CCCN[C@@H](C)C(=O)Nc1c(C)csc1C(=O)OC, CN1CC(=O)NC1=NC(=O)c1cc(F)c(F)cc1Cl

Potency, active:
CCOC(=O)C1(Cc2cccc(OC)c2)CCN(C(C)CC(C)(C)O)CC1 (stereo not drawn) 3.55 µM, CCn1nc(C(=O)Nc2ccc(S(=O)(=O)Nc3nccs3)cc2)c2ccccc2c1=O 28.2 µM, CSc1ccc(S(=O)(=O)NCc2ccc(Cl)cc2Cl)cc1 25.1 µM, Cc1ccc(S(=O)(=O)NCCCNc2ccc([N+](=O)[O-])cc2)cc1 14.1 µM, O=C(Nc1cccc(C(F)(F)F)c1)c1ccc2nc(-c3ccco3)c(-c3ccco3)nc2c1 0.398 µM, O=C(CN1C(=O)C2C3C=CC(C3)C2C1=O)N1CC(=O)N(CCc2ccccc2)C(=O)C1 (stereo not drawn) 28.2 µM, CCCNS(=O)(=O)c1ccc(OCC(=O)NCCC2=CCCCC2)cc1 11.2 µM, O=C(Nc1nc(-c2ccncc2)cs1)C1COc2ccccc2O1 (stereo not drawn) 3.55 µM, O=C(CN1CCN(S(=O)(=O)c2ccccc2F)CC1)Nc1ccccc1C(=O)c1ccccc1 2.82 µM, O=C(CSc1nnnn1-c1ccc(F)cc1)c1ccc(O)c(O)c1 22.4 µM, O=C(c1cc(-c2ccco2)on1)N1CCc2ccccc2C1 7.94 µM

activity, negative = inhibition, inactive:
C=CC[C@@H]1C=C[C@H](ON=C(C)C)[C@H](CO)O1 6.87% [at 13.5 µM]
